Test results from PubChem BioAssay AID1794842 (National Center for Advancing Translational Sciences (NCATS), 2023).
Hit rate of the full screen: of about 2,800 compounds, fewer than 10 were called active. The call rests on the fitted dose curve; in most records, active means well fitted curve in the direction sought with a large enough effect; inconclusive means small, poorly fitted or top-dose-only effect, or another doubt; inactive means no such curve, though single readings can be large or run the other way. The list shows a part of the results.

Each compound was assayed against Metallo-beta-lactamase type 2 (Klebsiella pneumoniae) (UniProt C7C422) (assay: qHTS to identify inhibitors of the New Delhi Metallo-beta-lactamase (NDM): Meropenem screen against the machine-based learning selections.). Settings: Purified NDM-1, meropenem hydrolysis, absorbance 300 nm; at 38.4 µM (top of the series) unless noted.
Procedure, shortened: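 NDM-1 (2 nM final) in 50 mM HEPES pH 7.0, 1 uM Zn2SO4, 0.01% Tween20 was preincubated with compounds for >30 min. Nitrocefin (16.7 uM final) was read at 485 nm after 15 min, and meropenem (50 uM final) at 300 nm after 30 min.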
Further: % of control where 0% means no effect.

Chain of UniProt C7C422 (C7C422 whole entry, looked up): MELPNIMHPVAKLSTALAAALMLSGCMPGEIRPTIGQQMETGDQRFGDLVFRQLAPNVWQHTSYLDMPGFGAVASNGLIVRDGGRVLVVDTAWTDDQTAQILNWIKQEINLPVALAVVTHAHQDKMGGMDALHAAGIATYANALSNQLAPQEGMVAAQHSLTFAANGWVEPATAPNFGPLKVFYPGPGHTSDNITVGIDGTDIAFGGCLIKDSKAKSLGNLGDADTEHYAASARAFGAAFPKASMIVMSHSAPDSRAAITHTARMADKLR

Activity change, negative = inhibition, inactive:
CN(C)Cc1cn(C[C@H]2C[C@@H](NC(=O)c3nc4ccccc4s3)[C@H](O)[C@@H]2O)nn1 12.9%, CCCN(CC1CC1)C(=O)C1CCC(=O)N(Cc2ccc(Cl)cc2)C1 (configuration not stated) -0.692%, Cc1cccc2c1nc1n2[C@@H](CNCc2ccc(C#N)cc2)COC1 -3.69% [at 57.5 µM], Cc1cc(C(=O)N2CC[C@H](NS(=O)(=O)c3cccs3)C[C@H]2C(=O)N[C@H](C)C(N)=O)n(C)n1 2.48%, COCc1cc(C[C@@H]2CC[C@H](O)[C@@H](CNC(=O)C3CCCC3)O2)no1 1.91% [at 57.5 µM], O[C@H]1CC[C@@H](Cc2cc(COc3ccccc3)on2)O[C@@H]1CN(CC1CC1)CC1CC1 0.357% [at 57.5 µM], CC(C)NS(=O)(=O)c1cc(C(=O)O)cc(-c2cccc3c2OCC3)c1 6.54%, COc1ccc([C@H]2C[C@@H](O)[C@@H](O)[C@@H]2NCc2ccc(OC)nc2)cc1 0.0934% [at 57.5 µM], COCCNC(=O)c1ccc2c(c1)N(C)C(CC(=O)N1CCCCC1)CO2 (configuration not stated) -0.371%, O=C(NCc1c[nH]c2ncccc12)c1ccccn1 2.58% [at 57.5 µM], Cc1nn(-c2ccccc2Cl)c(=O)n1CC(=O)N(C)C(C)c1ccon1 (configuration not stated) -1.15%, Oc1cccc(CN(Cc2ccsc2)Cc2ccco2)c1 0.491%, c1ccc2c(c1)cnn2CCCn1ccnc1-c1cc2n(n1)CCCNC2 39.2%, COC(=O)c1cc2n(n1)CCCN(C(=O)c1cc(CC(C)C)no1)C2 -0.232%, O=C(O)c1cc(Br)cc(S(=O)(=O)NCC2CCCO2)c1 (configuration not stated) 12.5%, O=C1N[C@@H]2CCN(C(=O)c3ccc(-c4ccccc4)cc3)[C@@H]2C(=O)N1c1ccc(F)cc1 0.84% [at 57.5 µM], OC1(CN2CCCCC2)CCN(c2nc3ccccc3s2)C1 (configuration not stated) 3.8%, O=C1NCCC[C@@H]1NC(=O)[C@H]1CN(C(=O)c2cccc(F)c2)CCN1C(=O)c1cccs1 -0.908%, Cc1ccc(CN2CC[C@@H](CO)N(C)c3cccnc3C2)s1 -1.6% [at 57.5 µM], CC(C)CCN1CCc2[nH]nc(C(=O)N(C)C)c2C1 -0.494%, COCC(=O)N1CCCc2nc(C)nc(-c3ccc(O)cc3)c2C1 2.17% [at 57.5 µM], COc1cccc(Nc2n[nH]c(C(O)c3cccc(C(F)(F)F)c3)n2)c1 (configuration not stated) -0.292% [at 57.5 µM]
